Results published in PubChem BioAssay AID504339 (National Center for Advancing Translational Sciences (NCATS), 2011).
Where “and” joins values, the source holds several entries; their conditions need not be identical. Identical values can stand only once. The whole screen tested about 390,000 compounds, of which about 17,000 (4.4%) were called active. The inconclusive results got no clear call from the source; some entries with a clear call stand among them for comparison. The call rests on the fitted dose curve; in most records, active means well fitted inhibition curve with a large enough effect; inconclusive means small, poorly fitted or top-dose-only effect; inactive means no such curve, though single readings can be large or run the other way. Where the call is inconclusive, the potency comes from a doubtful curve fit.

Biological target: Lysine-specific demethylase 4A (Homo sapiens) (UniProt O75164)
Experiment: qHTS Assay for Inhibitors of JMJD2A-Tudor Domain; further: nearly all actives have a fitted effect of over 50% in size
Conditions: AlphaScreen JMJD2A-Tudor / H3K4me3 peptide binding; activity change, negative = inhibition: at 114 µM (top of the series)
On the % scale 0 is the no-effect control and ±100 the full control effect; potency means the concentration at half of the fitted maximal effect; tags describe the fitted curve by direction and shape.

Sequence of UniProt O75164 (O75164 whole entry, looked up, the tested form may be a part): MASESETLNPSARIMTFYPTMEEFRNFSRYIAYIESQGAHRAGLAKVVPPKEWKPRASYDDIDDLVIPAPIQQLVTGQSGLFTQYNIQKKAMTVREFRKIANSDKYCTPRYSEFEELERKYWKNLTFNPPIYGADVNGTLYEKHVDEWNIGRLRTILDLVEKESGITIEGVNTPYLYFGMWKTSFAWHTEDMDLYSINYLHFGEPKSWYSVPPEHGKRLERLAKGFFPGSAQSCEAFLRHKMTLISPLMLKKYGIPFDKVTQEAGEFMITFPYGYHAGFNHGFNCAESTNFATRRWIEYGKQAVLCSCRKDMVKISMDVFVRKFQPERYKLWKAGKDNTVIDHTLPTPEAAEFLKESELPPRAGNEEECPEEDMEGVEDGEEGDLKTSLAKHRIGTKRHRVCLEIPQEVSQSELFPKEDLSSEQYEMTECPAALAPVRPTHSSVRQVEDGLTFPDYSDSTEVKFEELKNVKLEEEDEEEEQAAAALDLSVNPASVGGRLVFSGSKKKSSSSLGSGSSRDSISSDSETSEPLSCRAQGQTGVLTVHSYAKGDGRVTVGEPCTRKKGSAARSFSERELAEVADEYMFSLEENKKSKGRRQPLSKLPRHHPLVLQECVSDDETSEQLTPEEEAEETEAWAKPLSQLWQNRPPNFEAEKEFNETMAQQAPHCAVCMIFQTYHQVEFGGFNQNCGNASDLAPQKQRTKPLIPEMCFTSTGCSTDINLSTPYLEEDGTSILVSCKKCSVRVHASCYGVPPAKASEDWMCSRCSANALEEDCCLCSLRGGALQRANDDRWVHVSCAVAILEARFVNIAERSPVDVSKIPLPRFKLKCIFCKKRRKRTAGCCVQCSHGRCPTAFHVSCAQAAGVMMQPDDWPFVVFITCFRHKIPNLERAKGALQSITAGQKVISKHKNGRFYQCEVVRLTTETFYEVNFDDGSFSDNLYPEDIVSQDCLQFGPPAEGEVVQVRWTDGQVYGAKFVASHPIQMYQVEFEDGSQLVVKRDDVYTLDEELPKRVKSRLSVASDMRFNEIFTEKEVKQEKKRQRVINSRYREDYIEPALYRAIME

| Structure (SMILES) | Potency | activity change, negative = inhibition |
| --- | --- | --- |
| CCN(CC)c1ccc(/C=N/N=C(c2ccccc2)c2ccccc2)c(O)c1 | inconclusive: 17.8 µM [inhibitor, full curve] |  |
| O=C(CN1CCN(S(=O)(=O)c2ccccc2)CC1)NCCc1ccccc1 |  | inactive: -8.33% |
| c1ccc(-c2n[nH]c(-c3ccccn3)n2)nc1 | active: 3.16 µM and active: 1 µM |  |
| O=C(c1ccco1)N(Cc1ccc([N+](=O)[O-])cc1)c1ccc(Cl)cc1 | inconclusive: 12.6 µM [inhibitor, partial curve] |  |
| COc1ccc(CN2C(=O)C(CC(C)C)Nc3ncnc(N4CCN(c5ccccc5)CC4)c32)cc1 (configuration not stated) | inconclusive: 56.2 µM [inhibitor, partial curve] |  |
| Cc1ncc([N+](=O)[O-])n1CC(=O)Nc1cccc(C(F)(F)F)c1 |  | inactive: -2.95% |
| CC(=O)c1ccc(NC(=O)C2=CC(c3ccc(C)cc3)=NS(=O)(=O)N2C)cc1 | inconclusive: 28.2 µM [inhibitor, partial curve] |  |
| CCOc1cc(NC(=O)c2ccccn2)c(OCC)cc1NC(=O)CC(C)C | active: 20 µM |  |
| CN1CCN(S(=O)(=O)c2cccc(C#N)c2)C(c2ccccc2)C1 (configuration not stated) |  | inactive: -3.42% |
| O=C(CSc1c2c(nc3cc(Cl)ccc13)CCCC2)N1CCN(c2ccccc2)CC1 | inconclusive: 12.6 µM [inhibitor, full curve, poor fit] |  |
| O=C(NCC(c1ccco1)N1CCCCC1)c1ccc2c(c1)S(=O)(=O)c1ccccc1C2=O (configuration not stated) | inconclusive: 56.2 µM [inhibitor, partial curve] |  |
| O=c1c2c3c(sc2ncn1/N=C/c1ccc([N+](=O)[O-])o1)CCCC3 | inconclusive: 44.7 µM [inhibitor, partial curve] |  |
| Cc1ccc(C)c(/C(O)=C2\C(=O)C(=O)N(CCCn3ccnc3)C2c2cccnc2)c1 (configuration not stated) | active: 56.2 µM |  |
| O=C(O)CN1C(=O)/C(=C/c2ccc(SCc3ccccc3)o2)SC1=S | active: 56.2 µM |  |
| COc1ccc(Cn2c(=O)n(-c3ccc(OC)cc3)c(=O)c3c2c2cc(OC)ccc2n3C)cc1 |  | inactive: -5.77% |
| O=C1OCCN1S(=O)(=O)Nc1ccccc1 | active: 79.4 µM |  |
| COc1ccc(Cl)cc1Nc1nc(-c2sc(NC(=O)c3ccco3)nc2C)cs1 | inconclusive: 70.8 µM [inhibitor, single point] |  |
| O=C(c1cccs1)c1coc2ccc(O)c(CN3CCOCC3)c12 |  | inactive: -28.5% |
| CN(C)C(=O)N1CCC(C(=O)NCc2cccs2)CC1 | inconclusive: 100 µM [inhibitor, partial curve] |  |
| O=[N+]([O-])c1cccc(/C=C/C=N/Nc2nc(N3CCCCC3)nc(N3CCCCC3)n2)c1 | inconclusive: 2.82 µM [inhibitor, full curve] |  |
| O=C(Nc1cccc(NC(=O)c2ccccc2[N+](=O)[O-])n1)c1ccccc1[N+](=O)[O-] | inconclusive: 3.16 µM [inhibitor, single point] |  |
| Cc1cccc(C(=O)NC(=S)Nc2ccc(N3CCOCC3)cc2)c1 | inconclusive: 50.1 µM [inhibitor, partial curve] |  |
| O=C(Oc1ccc([N+](=O)[O-])cc1)C1CC(=O)N(c2ccc3c(c2)OCCO3)C1 (configuration not stated) | inconclusive: 17.8 µM [inhibitor, full curve] |  |
| CNC(=S)NN=C(C)CCCC(C)=NNC(=S)NC | inconclusive: 39.8 µM [inhibitor, partial curve] |  |

| Structure (SMILES) | Potency | activity change, negative = inhibition |
| --- | --- | --- |
| COc1cc(Cl)c(C)cc1NC(=O)Cn1c2ncccc2c(=O)n1-c1ccccc1 | inconclusive: 89.1 µM [inhibitor, single point] |  |
| Cc1ccc(CN2CCC(N3CC(C)OC(C)C3)CC2)cc1 (configuration not stated) | active: 22.4 µM |  |
| CC(=O)N1CCN(c2ccccc2NC(=O)COc2cc(C)cc(C)c2)CC1 | active: 50.1 µM |  |
| COCc1cc(C)nc2c1C(=O)NC(c1ccc(Br)cc1)N2Cc1ccccc1 (configuration not stated) |  | inactive: 0% |
| CC(=O)[C@@H]1[C@@H](C(=O)c2ccc(F)cc2)[C@]2(C(=O)Nc3ccccc32)[C@H]2C=Cc3cc(F)ccc3N12 | inconclusive: 28.2 µM [inhibitor, full curve] |  |
| Cc1nc(-c2ccccc2)sc1CCNC(=O)C(=O)Nc1ccc(F)c(Cl)c1 |  | inactive: -17.1% |
| COc1ccccc1/C=C/C=N/NC(=O)c1cc(-c2ccc(C)o2)[nH]n1 | inconclusive: 25.1 µM [inhibitor, full curve] |  |
| COc1ccc(NC(=O)CCN2CCCC(C)C2)cc1 (configuration not stated) |  | inactive: 3.64% |
| COCCN(C(=O)c1cccc(OC)c1)c1nnc(-c2ccncc2)s1 | inconclusive: 56.2 µM [inhibitor, partial curve, poor fit] |  |
| CNC(=S)NCCc1ccc(OC)c(OC)c1 | inconclusive: 63.1 µM [inhibitor, partial curve, poor fit] |  |
| O=C(CSCc1cc(=O)n2ccsc2n1)Nc1ccc(F)cc1 |  | inactive: -7.59% |
| CCCCn1c(=O)c2oc3ccccc3c2n(Cc2ccccc2C)c1=O |  | inactive: 0% |
| Cc1cccc(OCC(=O)Nc2sc3c(c2C#N)CCC3)c1 |  | inactive: -6.4% |
| O=C(COC(=O)c1ccccc1C(=O)c1ccccc1)Nc1cccc([N+](=O)[O-])c1 | inconclusive: 63.1 µM [inhibitor, partial curve] |  |
| Cc1cccc(NC(=O)CNC(=O)CNC(=O)Cc2ccccc2)c1 |  | inactive: -8.22% |
| COc1cc(C(=O)Nc2nc(-c3ccc(F)cc3)cs2)ccc1OCC(=O)N1CCOCC1 | inconclusive: 11.2 µM [inhibitor, partial curve] |  |
| CCc1ccc(OCC(=O)Nc2ccc3c(c2)OCCO3)cc1 |  | inactive: -3.42% |
| Nn1c(SCc2ccc(C(=O)O)cc2)nnc1-c1ccc(Cl)cc1Cl |  | inactive: -4.35% |
| O=C(O)c1cccc(N/N=C/c2cn(-c3ccccc3)nc2-c2cccs2)c1 | inconclusive: 79.4 µM [inhibitor, single point] |  |
| Cc1ccc(S(=O)(=O)c2nnn3c2nc(NC2CCCCC2)c2sccc23)cc1 |  | inactive: -24.9% |
| CN(C)S(=O)(=O)c1ccc2c(c1)nnn2CCNC(=O)Nc1ccc(Cl)cc1 |  | inactive: 6.62% |
| O=[N+]([O-])c1cccc2ccc(/C=C/c3cccc(Br)c3)nc12 | inconclusive: 12.6 µM [inhibitor, full curve, poor fit] |  |
| Cc1ccc(C(=O)C(c2ccccc2)N2Cc3ccccc3C2=N)cc1 (configuration not stated) | active: 28.2 µM |  |
| Nc1nc(-c2ccccc2)c(CCCOc2ccc([N+](=O)[O-])cc2)c(=O)[nH]1 | inconclusive: 100 µM [inhibitor, single point] |  |

| Structure (SMILES) | Potency | activity change, negative = inhibition |
| --- | --- | --- |
| COc1cccc(C=CC(=O)C=CC=Cc2ccccc2)c1 | inconclusive: 17.8 µM [inhibitor, partial curve] |  |
| Cc1ccc(/C=C/C(=O)Nc2cccc3ncccc23)o1 | inconclusive: 56.2 µM [inhibitor, partial curve] |  |
| CCOc1ccc(OCC)c(NC(=O)c2cnc(SC)nc2-c2ccccc2)c1 |  | inactive: -13.9% |
| FC(F)(F)c1ccc2c(c1)n(Cc1ccccc1)c1[n+]2CCCCC1 | inconclusive: 35.5 µM [inhibitor, single point] |  |
| COc1ccc2c(c1)C=CC1(O2)N(CCO)c2ccccc2C1(C)C (configuration not stated) | inconclusive: 50.1 µM [inhibitor, partial curve] |  |
| O=C(O)c1cccc2c1C(=O)c1ccc(-c3ccc(OC(F)(F)F)cc3)cc1S2(=O)=O | inconclusive: 79.4 µM [inhibitor, partial curve] |  |
| Cn1nc(-c2ccc(Cl)cc2)c2cc(C(=O)NCCCN3CCOCC3)sc21 |  | inactive: -19.3% |
| COc1ccc(OC)c(NC(=O)CSc2ccc3nnc(-c4ccccn4)n3n2)c1 | inconclusive: 56.2 µM [inhibitor, partial curve, poor fit] |  |
| COc1ccc(OC)c(/C=N/NC(=O)CCN2CCN(C(c3ccccc3)c3ccccc3)CC2)c1 | inconclusive: 44.7 µM [inhibitor, single point] |  |
| CC(C)COc1ccc(C(=O)OC2CC(C)(C)OCC2CN(C)C)cc1 (configuration not stated) | inconclusive: 79.4 µM [inhibitor, single point] |  |
| COc1ccc(S(=O)(=O)Nc2ccc(-n3cccc3)cc2)cc1 | active: 56.2 µM |  |
| COc1cc(Cl)c(C)cc1NC(=S)NN | inconclusive: 50.1 µM [inhibitor, partial curve] |  |
| CCOc1ccccc1NS(=O)(=O)c1ccc2oc(=O)ccc2c1 |  | inactive: 4.76% |
| O=C(NCCNC(=O)c1ccccc1)c1ccccc1 | inconclusive: 3.98 µM [inhibitor, partial curve, poor fit] |  |
| CCOC(=O)CN(C(=O)c1snc(C(N)=O)c1N)C(C(=O)NC1CCCCC1)c1ccc(F)cc1 (configuration not stated) | inconclusive: 79.4 µM [inhibitor, partial curve] |  |
| Nc1ccn(-c2ccc(Cl)cc2)c(=O)c1 |  | inactive: -9.21% |
| CC(=O)NNC(=O)c1sc(=S)n2c1[nH]c(=O)c1sccc12 | active: 79.4 µM |  |
| CCCC(=O)OCCNc1cc(SCc2ccco2)c2nonc2c1[N+](=O)[O-] | inconclusive: 44.7 µM [inhibitor, single point] |  |
| CCCCCCNC(=O)c1ncn[nH]1 |  | inactive: 1.72% |
| COc1cc(C(CCN2CCN(c3ccccc3)CC2)c2c(OC)cc(OC)c3c(C)cc(=O)oc23)cc(OC)c1OC (configuration not stated) | inconclusive: 22.4 µM [inhibitor, full curve] |  |
| COc1cc(C=NCC2OCCc3ccccc32)cc(OC)c1 (configuration not stated) |  | inactive: -20.8% |
| Cc1ccc2c(=O)cc(C(=O)Nc3ccc(S(=O)(=O)N4CCCCCC4)cc3)oc2c1 |  | inactive: -14.2% |
| O=C1CCC[C@@H]2C[C@@]3(C[C@@H]4CCN1[C@H]24)Nc1cc(Cl)c(Cl)cc1NC3=NCc1ccccc1 | inconclusive: 44.7 µM [inhibitor, partial curve] |  |
| CC(C)(C)OC(=O)NCCCC[C@H](NC(=O)c1[nH]cnc1C(=O)Nc1ccccc1)C(=O)OC(C)(C)C |  | inactive: -29.9% |
